Results taken from PubChem BioAssay AID1030 (National Center for Advancing Translational Sciences (NCATS), 2008).
The campaign covered roughly 220,000 compounds. About 16,000 (7.3%) were called active. This list was built around the results that the source calls inconclusive (neither active nor inactive); the mix of calls is not that of the screen. Calls follow the shape of the dose curve; as a rule, active = well fitted inhibition curve with a large enough effect (not every such curve was filed as active); inconclusive = small, poorly fitted or top-dose-only effect, or another doubt; inactive = no such curve, though single readings can be large or run the other way. Potencies of inconclusive entries are left out as doubtful fits.

Target: Aldehyde dehydrogenase 1A1 (Homo sapiens) (UniProt P00352)
Assay: qHTS Assay for Inhibitors of Aldehyde Dehydrogenase 1 (ALDH1A1)
Conditions: Purified ALDH1A1, NADH fluorescence, propionaldehyde substrate; series mostly up to 75.3 µM
Potency is read from the fitted curve at half-maximal effect; tags tell the direction and shape of the fitted curve.

Sequence of UniProt P00352 (P00352 whole entry, looked up): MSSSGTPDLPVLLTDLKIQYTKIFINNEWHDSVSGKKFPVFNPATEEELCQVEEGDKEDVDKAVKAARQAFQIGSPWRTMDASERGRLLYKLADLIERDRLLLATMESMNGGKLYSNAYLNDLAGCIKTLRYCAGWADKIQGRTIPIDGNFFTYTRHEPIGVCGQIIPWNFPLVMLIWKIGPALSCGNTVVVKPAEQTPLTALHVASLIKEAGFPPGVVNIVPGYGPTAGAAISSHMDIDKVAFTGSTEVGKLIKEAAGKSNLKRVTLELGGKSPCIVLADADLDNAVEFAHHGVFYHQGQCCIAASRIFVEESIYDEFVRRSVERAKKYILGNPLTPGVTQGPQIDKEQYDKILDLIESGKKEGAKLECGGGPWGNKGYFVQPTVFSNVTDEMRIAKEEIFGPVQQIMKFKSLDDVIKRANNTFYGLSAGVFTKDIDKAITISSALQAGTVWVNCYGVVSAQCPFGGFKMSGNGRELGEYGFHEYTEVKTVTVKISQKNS

Compound | Potency
Cc1ccc(OCC(=O)Nc2cccc(C)n2)c(C)c1 | inactive
CC1CCCCN1C(=O)CN1C(=O)CN(C)C(=O)c2ccccc21 (configuration not stated) | inconclusive [inhibitor, single point]
CN1C(=O)/C(=C/c2ccc(O)c([N+](=O)[O-])c2)NC1=S | active: 11.2 µM
COc1cccc(CC2(CO)CCCN(Cc3nc(-c4cccs4)oc3C)C2)c1 (configuration not stated) | inconclusive [inhibitor, single point]
CCOC(=O)c1c(NC(=O)CN2C(=O)NC(C)(c3ccccc3)C2=O)sc(C)c1C (configuration not stated) | inactive
O=C1/C(=C/c2cccnc2)Oc2cc(OS(=O)(=O)c3ccccc3)ccc21 | active: 3.16 µM
COc1cc(/C=C(\C#N)c2nc3c(s2)CCCC3)ccc1O | inconclusive [inhibitor, single point]
CCN(CC(=O)Nc1cccc(Br)c1)Cc1nc2ccccc2c(=O)[nH]1 | inconclusive [inhibitor, single point]
COc1ccc(NC(=O)c2ccccc2C)c(OC)c1 | inconclusive [inhibitor, partial curve]
CC1(C)CC(=O)C(N=Nc2cc(C(F)(F)F)ccc2Cl)=C(O)C1 | active: 1.41 µM
O=C1C2C3CCC(C3NCc3ccccc3)C2C(=O)N1Cc1ccccc1 (configuration not stated) | inconclusive [inhibitor, single point]
CC(OC(=O)c1ccc(S(=O)(=O)N(C)c2ccccc2)cc1)C(=O)NCCC1=CCCCC1 (configuration not stated) | inconclusive [inhibitor, single point]
O=C(NC1CCCCC1)C(c1cccnc1)N(CCc1ccccc1)C(=O)Cc1cccs1 (configuration not stated) | inactive
COc1ccccc1C(=O)NNC(=O)c1ccc(NC(=O)c2ccccc2)cc1 | inactive
Cc1ccc(S(=O)(=O)c2c(C)cc(C)nc2Cl)c(C)c1 | inactive
COc1ccc(CCN2C(=O)C3CC(C)=C(C)CC3C2=O)cc1OC (configuration not stated) | inconclusive [inhibitor, single point]
COc1ccc(CNC(=O)C2CCC(CNc3nc(=S)[nH]c4ccccc34)CC2)cc1 (configuration not stated) | inactive
COc1cc2c(cc1OC)CN(c1nc(CN3CCCC3)nc3sc(C)c(C)c13)CC2 | inconclusive [inhibitor, partial curve]
CCCC(=O)c1ccc(N2CCCCC2)c(F)c1 | inactive
COc1cc(C2C(C(=O)c3cccs3)=C(O)C(=O)N2Cc2ccco2)cc(OC)c1OC (configuration not stated) | inconclusive [inhibitor, single point]
O=C(c1ccc(CS(=O)(=O)c2c(Cl)cccc2Cl)o1)N1CCN(c2ccccn2)CC1 | inconclusive [inhibitor, single point]
O=C(NCc1ccc2c(c1)OCO2)c1ccccc1 | inactive
Cc1[nH]c2ccccc2c1CCCO | inactive
Cn1c(-c2ccccc2)c(C(=O)CCl)c2ccccc21 | active: 3.98 µM
O=C(CSc1nc(-c2ccccc2)cc(=O)[nH]1)Nc1ccccn1 | inconclusive [inhibitor, single point]
Cc1cc(NC(=O)c2ccc([N+](=O)[O-])o2)ccc1NC(=O)c1ccco1 | active: 25.1 µM

Compound | Potency
Cc1cc(N)n2nc(-c3ccccc3)cc2n1 | inconclusive [inhibitor, partial curve]
COc1ccc(C(=O)N2CCC(C(=O)Nc3ccc(OC)c(OC)c3)CC2)cc1 | inconclusive [inhibitor, single point]
CCN(CCCn1c(SCC#N)nc2ccccc2c1=O)c1ccccc1 | inconclusive [inhibitor, partial curve]
CC(=O)c1c(N2CCCCC2)nc(=O)n(-c2ccccc2)c1C | inactive
COCC(C)n1c(C)cc(C(=O)COC(=O)c2ccc(N3CCCC3=O)cc2)c1C (configuration not stated) | active: 25.1 µM
COc1ccc(NC(=O)CO/N=C2/CCCc3nonc32)c(OC)c1 | inconclusive [inhibitor, partial curve, poor fit]
CCc1ccccc1N(CC(=O)NCc1ccco1)C(=O)c1snc(C(N)=O)c1N | inconclusive [inhibitor, single point]
O=C(CN1C(=O)S/C(=C\C=C\c2ccccc2)C1=O)Nc1cccc(O)c1 | active: 31.6 µM
O=C(O)c1ccc(CSc2nnnn2C2CCCCC2)cc1 | active: 17.8 µM
COC(=O)CNC(=O)CCc1nnc(C2(c3ccc(Cl)cc3)CCC2)o1 | active: 8.91 µM
Cc1ccc(C2Nc3ccccc3C(=O)N2Cc2ccco2)cc1 (configuration not stated) | inconclusive [inhibitor, partial curve]
COc1ccc(C(=O)Nc2cc(C(C)=O)c(C)oc2=O)cc1 | inconclusive [inhibitor, single point]
CC(=O)N1CCC2(CC1)CN(c1ccccc1)C2 | active: 15.8 µM
CCOC(=O)c1c(NC(=O)CN2CCN(c3ccc(Cl)cc3)CC2)sc(C)c1C | inconclusive [inhibitor, partial curve]
Nc1nc(-c2cccc(Br)c2)cs1 | inconclusive [inhibitor, partial curve, poor fit]
O=C(NCc1cccnc1)c1ccccc1CCc1ccccc1 | inconclusive [inhibitor, partial curve, poor fit]
CCOc1cc(NC(=S)N2CCC(C(N)=O)CC2)c(C(=O)OC)cc1OCC | inconclusive [inhibitor, partial curve, poor fit]
O=C(O)/C=C/c1ccc2noc(-c3ccccc3)c2c1 | inconclusive [inhibitor, single point]
COC(=O)CNC(=O)c1ccc(OC2CCN(C(=O)C3CC3)CC2)cc1 | inactive
Cc1c(C(=O)OCC(=O)N2CC(=O)Nc3ccccc32)oc2ccc(Br)cc12 | inactive
O=C(OCC(=O)N1CCCc2ccccc21)c1ccc(Br)o1 | inconclusive [inhibitor, partial curve]
Cc1ccc(/C=C/S(=O)(=O)NCc2ccc(F)cc2)cc1 | inactive
Cn1c(N)c(C#N)c(C#N)c1-c1ccccc1 | inconclusive [inhibitor, partial curve]
N#Cc1c(SCC(N)=O)nc(-c2ccccc2)c2c1CCCC2 | active: 22.4 µM
Cc1ccc(C(=O)c2cc(C)sc2NC(=O)CN2CCN(C(=O)c3ccco3)CC2)cc1 | active: 25.1 µM
O=C(Cc1ccccc1)NCC(=O)N/N=C/c1ccc(Cl)cc1 | inactive

Compound | Potency
O=C(OCc1cc(=O)n2c(n1)sc1ccccc12)c1ccc(O)cc1 | inactive
O=C(CSCc1ccccc1Br)N/N=C/c1ccc2c(c1)OCO2 | inconclusive [inhibitor, partial curve]
CC(C)Sc1nc2c(c(=O)n(C)c(=O)n2C)n1C | inactive
Clc1ccccc1CSc1nnc(/C=C/c2ccccc2)o1 | inconclusive [inhibitor, single point]
COc1cc(/C=N/Nc2nc(Nc3ccccc3)nc(N3CCOCC3)n2)ccc1OC(=O)c1ccco1 | inconclusive [inhibitor, single point]
N#CCC(=O)Nc1ccccc1C(=O)O | inactive
COc1ccc(C(=O)Nc2ccc(N3CCCC3)cc2)cc1 | inconclusive [inhibitor, single point]
N#Cc1c(C(F)(F)F)cc(-c2ccc(Cl)cc2)[nH]c1=O | inconclusive [inhibitor, partial curve]
C=CCOC(=O)C1=C(C)Nc2nnnn2C1c1cccc(OC)c1OC (configuration not stated) | inconclusive [inhibitor, single point]
CC(Oc1ccc(Cl)cc1)C(=O)N/N=C/c1ccsc1 (configuration not stated) | inconclusive [inhibitor, partial curve, poor fit]
Cc1ccc2c([N+](=O)[O-])c(C)ccc2n1 | inconclusive [inhibitor, single point]
CN(Cc1ccco1)c1ccnc(-c2cccc(C#N)c2)n1 | inconclusive [inhibitor, single point]
CCOC(=O)C1CCCN(C(=O)c2ccc(OCC)cc2)C1 (configuration not stated) | inactive
Cc1ccc2cc(S(=O)(=O)NCCC(=O)O)ccc2c1 | inconclusive [inhibitor, single point]
FC(F)(F)c1cc(-c2ccco2)nc(NCc2ccccc2)n1 | inconclusive [inhibitor, single point]
O=c1[nH]cnc2c1sc(=S)n2-c1ccccc1 | active: 10 µM
Cc1cc(=O)[nH]c(SCc2nc3ccccc3s2)n1 | inactive
CC(c1ccccc1)N(NC(=O)C(O)(c1ccccc1)c1ccccc1)C(=O)c1ccccc1 (configuration not stated) | inconclusive [inhibitor, full curve]
Cn1c(NC(=O)/C=C/c2ccccc2)cc(=O)n(C)c1=O | inconclusive [inhibitor, partial curve]
CC(=O)n1c2ccccc2c2ccccc21 | inactive
O=C(NCc1ccccc1F)C1CCCN1C(=O)NCc1ccccc1 (configuration not stated) | inactive
COC(=O)CN1C(=O)N/C(=C/c2ccc(C)o2)C1=O | active: 17.8 µM
COC(=O)c1ccccc1NC(=O)CSc1nc(N)cc(N)n1 | active: 25.1 µM
CN(C)CCN(C(=O)c1ccc(N2C(=O)CCC2=O)cc1)c1nc2cc3c(cc2s1)OCCO3 | active: 28.2 µM
O=C(CSc1nnc(-c2ccco2)o1)c1ccccc1 | inconclusive [inhibitor, single point]
